Legend:
[1] = target: T1, human GIPR (hGIPR), full length (human, UniProt P48546 22-466); test: cell-based or functional assay
T1 sequence: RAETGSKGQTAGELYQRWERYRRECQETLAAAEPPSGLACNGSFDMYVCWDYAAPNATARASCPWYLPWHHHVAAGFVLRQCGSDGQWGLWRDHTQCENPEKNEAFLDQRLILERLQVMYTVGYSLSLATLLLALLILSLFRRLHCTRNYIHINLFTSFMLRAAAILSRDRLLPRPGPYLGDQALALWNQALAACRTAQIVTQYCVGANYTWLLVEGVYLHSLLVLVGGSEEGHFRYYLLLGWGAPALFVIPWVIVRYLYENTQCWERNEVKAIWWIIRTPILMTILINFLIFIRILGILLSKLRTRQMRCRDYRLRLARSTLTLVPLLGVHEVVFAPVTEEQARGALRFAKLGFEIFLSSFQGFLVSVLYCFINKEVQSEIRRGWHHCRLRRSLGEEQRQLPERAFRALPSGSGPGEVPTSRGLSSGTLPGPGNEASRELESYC

[2] = target: T2, Human GIPR ECD (GIPR extra cellular domain) (human); test: SPR (Biacore 8K, 37 C); antibody captured on anti-human IgG, human GIPR ECD as analyte; 1:1 model
T2 construct: The published benchmark structures (6dkj, 4hj0) used their own ECD constructs
T2 chain: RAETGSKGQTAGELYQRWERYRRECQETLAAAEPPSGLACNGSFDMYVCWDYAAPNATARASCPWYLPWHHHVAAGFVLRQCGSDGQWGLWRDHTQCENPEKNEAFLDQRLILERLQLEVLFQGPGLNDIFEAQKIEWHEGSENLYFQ

B1: anti-GIPR antibody GIPR-0107 (antibody, human IgG1, lambda)
heavy: QVQLVQSGAEVKKPGSSVKVSCKASGYTFSSYAINWVRQAPGQGLEWMGGIVPIFGIANYAQKFQGRVTITADESTSTAYMELSSLRSEDTAVYYCARGSDYVVPHFDYWGQGTLVTVSSASTKGPSVFPLAPSSKSTSGGTAALGCLVKDYFPEPVTVSWNSGALTSGVHTFPAVLQSSGLYSLSSVVTVPSSSLGTQTYICNVNHKPSNTKVDKKVEPKSCDKTHTCPPCPAPEAAGAPSVFLFPPKPKDTLMISRTPEVTCVVVDVSHEDPEVKFNWYVDGVEVHNAKTKPREEQYNSTYRVVSVLTVLHQDWLNGKEYKCKVSNKALPAPIEKTISKAKGQPREPQVYTLPPSREEMTKNQVSLTCLVKGFYPSDIAVEWESNGQPENNYKTTPPVLDSDGSFFLYSKLTVDKSRWQQGNVFSCSVMHEALHNHYTQKSLSLSPGK
light: QSVLTQPPSASGTPGQRVTISCSGSSSNIGSNYVYWYQQLPGTAPKLLIYRNNQRPSGVPDRFSGSKSGTSASLAISGLRSEDEADYYCAAWDDSLSGVVFGGGTKLTVLGQPKAAPSVTLFPPSSEELQANKATLVCLISDFYPGAVTVAWKADSSPVKAGVETTTPSKQSNNKYAASSYLSLTPEQWKSHRSYSCQVTHEGSTVEKTVAPTECS
notes: also called GIPR-1017
Human GIPR-CHO cAMP Antagonist Activity IC50 [1]: 14.4 nM
Kd [2]: 13.8 nM
koff [2]: 0.00501 s⁻¹
kon [2]: 363000 M⁻¹ s⁻¹

From patent US20250163168A1 (Pfizer, published 2025)
